# Results taken from PubChem BioAssay AID463173 (ICCB-Longwood Screening Facility, Harvard Medical School, 2010).
# Hit rate of the full screen: of about 52,000 compounds, about 1,700 (3.3%) were called active. Cut-off read from the data, not from the text of the source: active = survival mostly below about 52% (no sharp cut-off); inactive = mostly above about 56%. The list shows a part of the results.
# System: Wild type
# Test: growth inhibition of S. aureus wild type versus tarO mutant, primary screen, teichoic acid synthesis inhibitors, RN4220, OD600 (AID 463173)
# Conditions: S. aureus RN4220 wild type/DeltatarO growth, OD600, 18 h, stronger effect = lower value, screened at 18.75 µg/mL (by protocol)
row,SMILES,survival
1,O=C(Nc1ccc2nc(SCC(=O)N3CCCC3)sc2c1)c1cccc(F)c1,inactive: 71%
2,CCc1ccc(-n2c(=O)c3ccc(C(=O)NCCc4ccccc4)cc3n(Cc3ccccc3C#N)c2=O)cc1,inactive: 131%
3,COC(=O)c1c(-c2cccs2)csc1NC(=O)c1ccc(C(C)(C)C)cc1,inactive: 82%
4,CSc1ccc(C2c3[nH]c4ccccc4c3CCN2C(=O)CCC2CCCC2)cc1 (stereo unspecified),inactive: 83%
5,COc1ccc(-c2nc3ccccc3o2)cc1NC(=O)c1ccc(OCC(C)C)cc1,inactive: 55%
6,Cc1ccc2c(=O)cc(C(=O)Nc3c(C(=O)c4ccccc4)oc4ccccc34)oc2c1,inactive: 100%
7,CCOc1ccc(NS(=O)(=O)c2ccc3[nH]cc(C(=O)N(C)C4CCCCC4)c(=O)c3c2)cc1,inactive: 60%
8,CCOC(=O)c1c(-c2ccc(C)cc2C)csc1NC(=O)c1ccccc1Cl,inactive: 64%
9,NC(=O)C1CCN(C(=O)c2ccc3c(c2)N(Cc2cccc(Cl)c2)C(=O)c2ccccc2S3(=O)=O)CC1,inactive: 69%
10,O=C(NCCCN1CCCCC1)c1ccc2c(c1)sc1nc(-c3ccc(F)cc3)cn12,inactive: 43%
11,Cc1cccc2cc(C#N)c(SCCN3CCCCC3)nc12,inactive: 105%
12,COC(=O)c1c(-c2cccs2)csc1NC(=O)COc1ccccc1,inactive: 81%
13,COc1ccc(C2C(=O)N(C3CCCCCC3)CC(=O)N2Cc2ccccc2)cc1 (stereo unspecified),inactive: 67%
14,Cc1cc(N2CCOCC2)nc([S+]2CCCC2)n1,inactive: 101%
15,COCCNC(=O)Cn1cc2c(n1)-c1c(oc(C(=O)N3CCCC3)c1C)CC2,inactive: 87%
16,NC(=O)Cn1c(=O)n(CCCCCC(=O)NCc2ccccc2Cl)c(=O)c2sccc21,inactive: 91%
17,C=CCn1c(SCC(=O)Nc2ccc(F)cc2)nc2ccccc2c1=O,inactive: 107%
18,COc1ccc(Cl)cc1S(=O)(=O)n1ccnc1,inactive: 109%
19,CC(CNC(=O)c1ccc(Nc2nc3ccccc3n3nnnc23)cc1)c1ccccc1 (stereo unspecified),inactive: 72%
20,COc1ccc(OC(=O)CSc2nnc(-c3ccc(F)cc3)o2)cc1,inactive: 118%
21,CCCn1c2ccccc2c2cnn(CC(=O)NC(C)CC)c(=O)c21 (stereo unspecified),inactive: 64%
22,CCCCOC(=O)/C(C#N)=C/c1ccc(-c2ccc(Br)cc2)o1,inactive: 84%
23,CCC(=O)N1CCN(c2nc3c(C)cccc3s2)CC1,inactive: 80%

row,SMILES,survival
1,Cc1ccc([N+](=O)[O-])c(Oc2ncnc3c2oc2ccccc23)c1,inactive: 95%
2,N#CC1=C(N)Oc2c(c(=O)oc3ccccc23)C1,inactive: 88%
3,Cc1ccc(N2C(=O)CSC23C(=O)N(CC(=O)Nc2ccc(C)cc2C)c2ccccc23)cc1 (stereo unspecified),inactive: 71%
4,Cn1c(Cc2cccs2)nnc1SCC(=O)N1CCCc2ccccc21,inactive: 109%
5,CCc1cccc(C)c1NC(=O)c1nc2ccccc2nc1N1CCCCC1,inactive: 74%
6,COc1ccc2c(Sc3ccccc3)c(C(=O)N3CCC(C)CC3)[nH]c2c1,inactive: 60%
7,Cc1ccc(NC(=O)CCCN2C(=O)COc3ccc(C)cc32)c(C)c1,inactive: 121%
8,Cc1ccc(CNC(=O)CN2C(=O)CSc3ccc(S(=O)(=O)N4CCCC4)cc32)cc1,inactive: 81%
9,CCc1ccc(C(=O)CSc2nc(-c3ccccc3)nc3c2CCCC3)cc1,inactive: 73%
10,Cc1ccc(C)c(N2CCN(S(=O)(=O)c3ccc4c(c3)CCCN4C(=O)C3CCC3)CC2)c1,inactive: 74%
11,COc1ccc2nc3sc(C(=O)N4CCN(c5ccc(F)cc5)CC4)cc3cc2c1,inactive: 79%
12,O=C(NCCn1cnc2cccnc21)N(c1ccccc1)c1ccccc1,inactive: 97%
13,Cc1cc2oc(C(=O)Nc3sc4c(c3C(=O)NCc3ccccc3)CCCC4)cc(=O)c2cc1C,inactive: 82%
14,COc1ccc(CNS(=O)(=O)c2ccc(F)c(C(=O)Nc3c(C)cc(C)cc3C)c2)cc1,inactive: 80%
15,CCOC(=O)c1cc(-c2ccc(OC)cc2)n(CCC(=O)Nc2cccc(C(C)=O)c2)c1C,inactive: 75%
16,COc1cccc(-c2nc3c(c(SCc4ccccc4Cl)n2)Cc2c(CO)cnc(C)c2O3)c1,inactive: 87%
17,CN(C)c1ccc(CNC(=O)CN2C(=O)CCn3nc(-c4cn(C)c5ccccc45)cc32)cc1,inactive: 53%
18,COc1ccc(-c2noc(CN(C(=O)Cc3ccc(C)cc3)C(C)C)n2)cc1,active: 5%
19,CCOC(=O)c1cc2occc2n1CC,inactive: 115%
20,CCC(C)NC(=O)CSc1nnc(-c2ccc(C)cc2)c(-c2ccc(C)cc2)n1 (stereo unspecified),inactive: 73%
21,COCCCNC(=O)c1sc2nc(C)c(C(=O)Nc3ccc(C)cc3C)c(-c3ccc(Br)cc3)c2c1N,inactive: 87%
22,Cc1ccc(CSCCC(=O)N2CCN(c3cc(C)ccc3C)CC2)cc1,inactive: 98%
23,CCCN(CCC)C(=O)C1CCCN(c2ncnc3onc(-c4ccc(F)cc4)c23)C1 (stereo unspecified),inactive: 72%

row,SMILES,survival
1,COc1cccc(CNC(=O)C2CCN(C(=O)c3sccc3-n3cccc3)CC2)c1,inactive: 77%
2,O=C(NCCCO)C(=O)Nc1c2c(nn1-c1ccccc1)CSC2,inactive: 85%
3,CCC(CC)C(=O)NCc1nc2cccnc2n1Cc1ccc(F)cc1,inactive: 87%
4,CCCN(CCC)C(=O)c1cn(CC)c2ccc(S(=O)(=O)N3CCCCC3)cc2c1=O,inactive: 133%
5,COC(=O)C1CC23C=CNC4CCC5(c6ccccc6NC15C2C)C43 (stereo unspecified),inactive: 112%
6,CCc1ccc(NC(=O)CSc2nc3c(sc4ccccc43)c(=O)n2CCN(CC)CC)cc1,inactive: 73%
7,Cc1ccc(CNS(=O)(=O)c2cc3c(cc2C)N(C)CCO3)cc1,inactive: 78%
8,Cc1cn2c(=O)cc(COC(=O)c3ccccc3F)nc2s1,inactive: 63%
9,O=C(CN1C(=O)C2(SCC(=O)N2c2ccccc2)c2ccccc21)NCCc1ccccc1 (stereo unspecified),inactive: 136%
10,Cc1ccc(C(=O)Nc2ccccc2C(=O)OCc2cc(=O)n3nc(C4CC4)sc3n2)cc1,inactive: 87%
11,COc1cc(C)ccc1OCCSc1nc2ccc(NC(=O)c3cccs3)cc2s1,inactive: 83%
12,Cc1cc(C)cc(NC(=O)CCCc2nnc3n(CC(C)C)c(=O)c4sccc4n23)c1,inactive: 97%
13,Cc1ccc(NC(=O)c2ccc3c(c2)NC(=O)c2ccccc2S3)cc1,inactive: 89%
14,CCOC(=O)c1cc(C(C)(C)C)oc1CN,inactive: 95%
15,CC(=O)Nc1cccc(NC(=O)CSc2nccn2Cc2ccco2)c1,inactive: 75%
16,Cc1ccc(S(=O)(=O)C(CNC(=O)COc2ccc(Cl)cc2)c2ccco2)cc1 (stereo unspecified),inactive: 120%
17,CCOc1ccc(-c2nnc(SCC(=O)c3ccc(F)cc3)n2-c2ccccc2)cc1,inactive: 153%
18,Cc1ccc(Cn2ccnc2SCC(=O)Nc2ccc3c(c2)OCCO3)cc1,inactive: 83%
19,COc1ccc(/C=C/C(=O)Nc2ccc(Cl)cc2Cl)cc1,inactive: 82%
20,CCN(CC)CCCNC(=O)C(=O)Nc1ccc2nc3n(c(=O)c2c1)CCCCC3,inactive: 86%
21,O=C(Nc1cccc(Cl)c1)c1cc(S(=O)(=O)N2CCCc3ccccc32)ccc1F,inactive: 120%
22,CCOc1cc(C2CC(=O)Nc3c2c(=O)nc(SCc2cccc(Cl)c2)n3C)ccc1O (stereo unspecified),inactive: 85%
23,Cc1ccccc1CNC(=O)c1cc2cccc3c2n1CC(C)S3 (stereo unspecified),inactive: 73%

row,SMILES,survival
1,COCCNC(=O)N1c2ccccc2Sc2ccccc21,inactive: 112%
2,COc1ccc(-c2cc(C(=O)Nc3sc4c(c3C(N)=O)CCC(C)C4)no2)cc1 (stereo unspecified),inactive: 135%
3,CCOC(=O)c1[nH]cnc1C(=O)NC1CCCCC1,inactive: 110%
4,Cc1c(NC(=O)Nc2ccc(Cl)c(C(F)(F)F)c2)c(=O)n(-c2ccccc2)n1C,inactive: 136%
5,Fc1ccccc1N1CCN(c2ncnc3onc(-c4cccc(Cl)c4)c23)CC1,inactive: 79%
6,CCOc1ccc(OCC)c(-n2cnnn2)c1,inactive: 87%
7,COc1cccc(OCc2cc(=O)n3cc(C)sc3n2)c1,inactive: 55%
8,CC(=O)Nc1ccc(NC(=O)c2nc(SCc3ccccc3C)ncc2Cl)cc1,inactive: 79%
9,Cc1cccn2c(=O)cc(COc3ccc(NC(=O)C(C)Oc4ccccc4)cc3)nc12 (stereo unspecified),inactive: 78%
10,NS(=O)(=O)c1ccc(NC(=O)CN2CCN(c3ccc(F)cc3)CC2)cc1,inactive: 67%
11,Cn1c(=O)c2c(-c3ccccc3Br)n(Cc3ccccc3)cc2n(C)c1=O,inactive: 82%
12,CCCCNC(=O)c1cc(-c2ccc(Cl)c(Cl)c2)on1,inactive: 76%
13,Cc1ccc(Cl)cc1-n1ncc2c(NCCC3=CCCCC3)ncnc21,inactive: 119%
14,COc1ccc(-n2c(SCC(=O)NC3CCCCC3)nc3c([nH]c4ccccc43)c2=O)cc1,inactive: 32%
15,COc1ccc(-c2cc3c(=O)n(CC(=O)Nc4cc(C)ccc4C)ccn3n2)cc1,inactive: 69%
16,Cc1ccc(S(=O)(=O)n2nc(C)c(S(=O)(=O)N3CCCCC3)c2C)cc1,inactive: 82%
17,CCc1ccc(CN(Cc2ccco2)C(=O)c2ccc(C)cc2)cc1,inactive: 56%
18,CSc1ccc(/C=C/c2nc3ccccc3n2S(=O)(=O)c2ccc(F)c(C)c2)cc1,inactive: 77%
19,CCOc1ccc(NC(=O)CCc2c(C)nc3c(c(C)nn3-c3ccccc3)c2C)cc1,inactive: 65%
20,Cc1nnc(NC(=O)CC2CC3CCC2C3)s1 (stereo unspecified),inactive: 98%
21,CCOc1ccc(NC(=O)CC2C(=O)N(c3cccc(C)c3)C(=O)N2CCC2=CCCCC2)cc1 (stereo unspecified),inactive: 131%
22,O=C(Nc1ccccc1)N(Cc1cccs1)c1ccc(Cl)cc1,inactive: 108%
